Experimental data from patent US12116388B2, “Amylin receptor agonists” (Novo Nordisk A/S, priority 2022, dated 2024).
At least one peptide structure holds a part that was inferred or is arguable (an end, a ring closure or a residue). For at least one compound, name, drawing or mass did not settle the structure. Starred links: 1 amine or outer side, 2 acyl side, 3 side chain; linkers in the order of their positions; H or OH if unused. Residues, ends and D or L forms follow the SMILES beside them. Groups on a side chain read outwards from the residue. *: point of attachment. C20 diacid = O=C(O)CCCCCCCCCCCCCCCCCCC(=O)*; C18 diacid = O=C(O)CCCCCCCCCCCCCCCCC(=O)*; C16 diacid = O=C(O)CCCCCCCCCCCCCCC(=O)*; γGlu = O=C(O)[C@H](CCC(=O)[*:2])N[*:1]

System: Sprague Dawley (SD) rats
Experiment: Acute food intake in ad libitum fed rat model
Assay type: in vivo
Conditions: single s.c. administration, negative value = reduced food intake

Structure (SMILES)	Food intake relative to vehicle (%) 0-24 hr, 3 nmol/kg [%]	Food intake relative to vehicle (%) 24-48 hr, 3 nmol/kg [%]	Food intake relative to vehicle (%) 48-72 hr, 3 nmol/kg [%]
CC[C@H](C)[C@H](NC(=O)[C@@H]1CCCN1C(=O)CNC(=O)[C@H](Cc1ccccc1)NC(=O)[C@H](Cc1c[nH]cn1)NC(=O)[C@H](Cc1c[nH]cn1)NC(=O)[C@H](CC(C)C)NC(=O)[C@H](Cc1ccccc1)NC(=O)[C@H](CCC(=O)O)NC(=O)[C@H](C)NC(=O)[C@H](CC(C)C)NC(=O)[C@H](CCCNC(=N)N)NC(=O)[C@H](C)NC(=O)[C@@H](NC(=O)[C@H](CCC(N)=O)NC(=O)[C@H](C)NC(=O)[C@@H](NC(=O)[C@H](CO)NC(=O)[C@H](CC(C)C)NC(=O)[C@H](CO)NC(=O)CNC(=O)[C@H](C)NC(=O)CC[C@H](NC(=O)CCCCCCCCCCCCCCCCC(=O)O)C(=O)O)[C@@H](C)O)[C@@H](C)O)C(=O)N[C@@H](CC(C)C)C(=O)N1CCC[C@H]1C(=O)N1CCC[C@H]1C(=O)N[C@H](C(=O)N[C@@H](CC(=O)O)C(=O)N[C@H](C(=O)NCC(=O)N[C@@H](CO)C(=O)N[C@@H](CCC(=O)O)C(=O)N[C@H](C(=O)N1CCC[C@H]1C(N)=O)[C@@H](C)O)C(C)C)[C@@H](C)O [Compound 15, N^1-[(4S)-4-carboxy-4-(17-carboxyheptadecanoylamino)butanoy]-[Ala1,Gly2,Ser3,Leu4,Ser5,Ala7,Gln8,Ala10,Glu14,His17,Pro25,Pro28,Pro29,Asp31,Glu35,Pro37],des-(19-22)-human amylin] ({C18 diacid-γGlu}-AGSLSTAQTARLAEFLHHFGPILPPTDVGSETP-NH2)	−66	−80	−36
CC[C@H](C)[C@H](NC(=O)[C@@H]1CCCN1C(=O)CNC(=O)[C@H](Cc1ccccc1)NC(=O)[C@H](CC(N)=O)NC(=O)[C@H](CC(=O)O)NC(=O)[C@H](CO)NC(=O)[C@H](CO)NC(=O)[C@H](Cc1c[nH]cn1)NC(=O)[C@H](Cc1c[nH]cn1)NC(=O)[C@H](CC(C)C)NC(=O)[C@H](Cc1ccccc1)NC(=O)[C@H](CCC(=O)O)NC(=O)[C@H](C)NC(=O)[C@H](CC(C)C)NC(=O)[C@H](CCCNC(=N)N)NC(=O)[C@H](CCC(N)=O)NC(=O)[C@@H](NC(=O)[C@H](CCC(N)=O)NC(=O)[C@H](C)NC(=O)[C@@H](NC(=O)[C@H](CO)NC(=O)[C@H](CC(C)C)NC(=O)[C@H](Cc1c[nH]cn1)NC(=O)[C@H](CO)NC(=O)[C@H](C)NC(=O)CC[C@H](NC(=O)CCCCCCCCCCCCCCCCCCC(=O)O)C(=O)O)[C@@H](C)O)[C@@H](C)O)C(=O)N[C@@H](CC(C)C)C(=O)N1CCC[C@H]1C(=O)N1CCC[C@H]1C(=O)N[C@H](C(=O)N[C@@H](CC(=O)O)C(=O)N[C@H](C(=O)NCC(=O)N[C@@H](CO)C(=O)N[C@@H](CC(N)=O)C(=O)N[C@H](C(=O)N1CCC[C@H]1C(N)=O)[C@@H](C)O)C(C)C)[C@@H](C)O [Compound 3, N^1-[(4S)-4-carboxy-4-(19-carboxynonadecanoylamino)butanoyl]-[Ala1,Ser2,His3,Leu4,Ser5,Ala7,Gln8,Glu14,His17,Asp21,Pro25,Pro28,Pro29,Asp31,Pro37]-human amylin] ({C20 diacid-γGlu}-ASHLSTAQTQRLAEFLHHSSDNFGPILPPTDVGSNTP-NH2)	−60	−76	−17
CC[C@H](C)[C@H](NC(=O)[C@@H]1CCCN1C(=O)CNC(=O)[C@H](Cc1ccccc1)NC(=O)[C@H](CC(N)=O)NC(=O)[C@H](CC(=O)O)NC(=O)[C@H](CO)NC(=O)[C@H](CO)NC(=O)[C@H](Cc1c[nH]cn1)NC(=O)[C@H](Cc1c[nH]cn1)NC(=O)[C@H](CC(C)C)NC(=O)[C@H](Cc1ccccc1)NC(=O)[C@H](CCC(=O)O)NC(=O)[C@H](C)NC(=O)[C@H](CC(C)C)NC(=O)[C@H](CCCNC(=N)N)NC(=O)[C@H](C)NC(=O)[C@@H](NC(=O)[C@H](CCC(N)=O)NC(=O)[C@H](C)NC(=O)[C@@H](NC(=O)[C@H](CO)NC(=O)[C@H](CC(C)C)NC(=O)[C@H](Cc1c[nH]cn1)NC(=O)[C@H](CO)NC(=O)[C@H](C)NC(=O)CC[C@H](NC(=O)CCCCCCCCCCCCCCC(=O)O)C(=O)O)[C@@H](C)O)[C@@H](C)O)C(=O)N[C@@H](CC(C)C)C(=O)N1CCC[C@H]1C(=O)N1CCC[C@H]1C(=O)N[C@H](C(=O)N[C@@H](CC(=O)O)C(=O)N[C@H](C(=O)NCC(=O)N[C@@H](CO)C(=O)N[C@@H](CC(N)=O)C(=O)N[C@H](C(=O)N1CCC[C@H]1C(N)=O)[C@@H](C)O)C(C)C)[C@@H](C)O [Compound 20, N^1-[(4S)-4-carboxy-4-(15-carboxypentadecanoylamino)butanoyl]-[Ala1,Ser2,His3,Leu4,Ser5,Ala7,Gln8,Ala10,Glu14,His17,Asp21,Pro25,Pro28,Pro29,Asp31,Pro37]-human amylin] ({C16 diacid-γGlu}-ASHLSTAQTARLAEFLHHSSDNFGPILPPTDVGSNTP-NH2)	−88	−16	16
CC[C@H](C)[C@H](NC(=O)[C@@H]1CCCN1C(=O)CNC(=O)[C@H](Cc1ccccc1)NC(=O)[C@H](CC(N)=O)NC(=O)[C@H](CC(N)=O)NC(=O)[C@H](CO)NC(=O)[C@H](CO)NC(=O)[C@H](Cc1c[nH]cn1)NC(=O)[C@H](CCCNC(=N)N)NC(=O)[C@H](CC(C)C)NC(=O)[C@H](Cc1ccccc1)NC(=O)[C@H](CCC(=O)O)NC(=O)[C@H](C)NC(=O)[C@H](CC(C)C)NC(=O)[C@H](CCCNC(=N)N)NC(=O)[C@H](CCC(N)=O)NC(=O)[C@@H](NC(=O)[C@H](C)NC(=O)[C@@H]1CSSC[C@H](NC(=O)[C@H](CCCCN)NC(=O)CC[C@H](NC(=O)CCCCCCCCCCCCCCCCCCC(=O)O)C(=O)O)C(=O)N[C@@H](CC(N)=O)C(=O)N[C@@H]([C@@H](C)O)C(=O)N[C@@H](C)C(=O)N[C@@H]([C@@H](C)O)C(=O)N1)[C@@H](C)O)C(=O)N[C@@H](CC(C)C)C(=O)N1CCC[C@H]1C(=O)N1CCC[C@H]1C(=O)N[C@H](C(=O)N[C@@H](CC(N)=O)C(=O)N[C@H](C(=O)NCC(=O)N[C@@H](CO)C(=O)N[C@@H](CC(N)=O)C(=O)N[C@H](C(=O)N1CCC[C@H]1C(N)=O)[C@@H](C)O)C(C)C)[C@@H](C)O [cagrilintide, reference compound]	−42	−38	3
CC[C@H](C)[C@H](NC(=O)[C@H](CCCCNC(=O)CC[C@H](NC(=O)CCCCCCCCCCCCCCCCC(=O)O)C(=O)O)NC(=O)CNC(=O)[C@H](Cc1ccccc1)NC(=O)[C@@H]1CCCN1C(=O)[C@H](CC(=O)O)NC(=O)[C@H](CO)NC(=O)[C@H](CO)NC(=O)[C@H](Cc1c[nH]cn1)NC(=O)[C@H](Cc1c[nH]cn1)NC(=O)[C@H](CC(C)C)NC(=O)[C@H](Cc1ccccc1)NC(=O)[C@H](CCC(=O)O)NC(=O)[C@H](C)NC(=O)[C@H](CC(C)C)NC(=O)[C@H](CCCNC(=N)N)NC(=O)[C@H](CCC(N)=O)NC(=O)[C@@H](NC(=O)[C@H](CCC(N)=O)NC(=O)[C@H](C)NC(=O)[C@@H](NC(=O)[C@H](CO)NC(=O)[C@H](CC(C)C)NC(=O)[C@H](CCC(N)=O)NC(=O)[C@H](CO)NC(=O)[C@H](C)NC(C)=O)[C@@H](C)O)[C@@H](C)O)C(=O)N1CCC[C@H]1C(=O)N[C@@H](CO)C(=O)N[C@@H](CO)C(=O)N[C@H](C(=O)N[C@@H](CC(=O)O)C(=O)N[C@H](C(=O)NCC(=O)N1CCC[C@H]1C(=O)N[C@@H](CC(=O)O)C(=O)N[C@H](C(=O)N1CCC[C@H]1C(N)=O)[C@@H](C)O)C(C)C)[C@@H](C)O [Compound 19, N^1-acetyl,N{Epsilon-25}-[(4S)-4-carboxy-4-(17-carboxyheptadecanoylamino)butanoyl]-[Ala1,Ser2,Gln3,Leu4,Ser5,Ala7,Gln8,Glu14,His17,Asp21,Pro22,Lys25,Pro27,Asp31,Pro34,Asp35,Pro37]-human amylin] (Ac-ASQLSTAQTQRLAEFLHHSSDPFGK([γGlu-C18 diacid])IPSSTDVGPDTP-NH2)	−56	−42	−4
CC[C@H](C)[C@H](NC(=O)[C@@H]1CCCN1C(=O)CNC(=O)[C@H](Cc1ccccc1)NC(=O)[C@H](Cc1c[nH]cn1)NC(=O)[C@H](Cc1c[nH]cn1)NC(=O)[C@H](CC(C)C)NC(=O)[C@H](Cc1ccccc1)NC(=O)[C@H](CCC(=O)O)NC(=O)[C@H](C)NC(=O)[C@H](CC(C)C)NC(=O)[C@H](CCCNC(=N)N)NC(=O)[C@H](CCC(N)=O)NC(=O)[C@@H](NC(=O)[C@H](CCC(N)=O)NC(=O)[C@H](CC(C)C)NC(=O)[C@@H](NC(=O)[C@H](CO)NC(=O)[C@H](CC(C)C)NC(=O)[C@H](Cc1c[nH]cn1)NC(=O)[C@H](CO)NC(=O)[C@H](C)NC(=O)CC[C@H](NC(=O)CCCCCCCCCCCCCCCCC(=O)O)C(=O)O)[C@@H](C)O)[C@@H](C)O)C(=O)N[C@@H](CC(C)C)C(=O)N1CCC[C@H]1C(=O)N1CCC[C@H]1C(=O)N[C@H](C(=O)N[C@@H](CC(=O)O)C(=O)N[C@H](C(=O)NCC(=O)N[C@@H](CO)C(=O)N[C@@H](CCC(=O)O)C(=O)N[C@H](C(=O)N1CCC[C@H]1C(N)=O)[C@@H](C)O)C(C)C)[C@@H](C)O [Compound 35, N^1-[(4S)-4-carboxy-4-(17-carboxyheptadecanoylamino)butanoyl]-[Ala1,Ser2,His3,Leu4,Ser5,Leu7,Gln8,Glu14,His17,Pro25,Pro28,Pro29,Asp31,Glu35,Pro37],des-(19-22)-human amylin] ({C18 diacid-γGlu}-ASHLSTLQTQRLAEFLHHFGPILPPTDVGSETP-NH2)	−77	−69	−20
